Numbering of substitutions follows the chain as printed; changes in the protein carry UniProt numbers. This is one part of the list.
T1: RBFOX1 RRM (Homo sapiens, UniProt Q9NWB1 109-208)
T1 sequence: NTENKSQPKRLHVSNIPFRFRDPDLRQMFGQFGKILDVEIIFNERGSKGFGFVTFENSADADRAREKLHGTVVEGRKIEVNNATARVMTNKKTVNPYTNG

B1: GCCGGCU (DNA:RNA)
RNA: GGGAGACCGGAAUUCAGAUUGUCCGCCGGCUUUAAAUCCCGUCGUAGCCACCA
DNA 1: CAATCTGAATTCCGGTCTCCC
DNA 2: TGGTGGCTACGACGGGATT
B2: CCGGGCC (DNA:RNA)
RNA: B1 RNA with G25C, C27G, U31C
DNA 1: CAATCTGAATTCCGGTCTCCC
DNA 2: TGGTGGCTACGACGGGATT
B3: CUAUUUA (DNA:RNA)
RNA: GGGAGACCGGAAUUCAGAUUGUCCCUAUUUAUUAAAUCCCGUCGUAGCCACCA
DNA 1: CAATCTGAATTCCGGTCTCCC
DNA 2: TGGTGGCTACGACGGGATT
B4: CUGGGUC (DNA:RNA)
RNA: B3 RNA with A27G, U28G, U29G, A31C
DNA 1: CAATCTGAATTCCGGTCTCCC
DNA 2: TGGTGGCTACGACGGGATT
B5: AGGUACA (DNA:RNA)
RNA: B3 RNA with C25A, U26G, A27G, U29A, U30C
DNA 1: CAATCTGAATTCCGGTCTCCC
DNA 2: TGGTGGCTACGACGGGATT
B6: GUAUUAU (DNA:RNA)
RNA: B3 RNA with C25G, U30A, A31U
DNA 1: CAATCTGAATTCCGGTCTCCC
DNA 2: TGGTGGCTACGACGGGATT
B7: UGGCAUG (DNA:RNA)
RNA: B3 RNA with C25U, U26G, A27G, U28C, U29A, A31G
DNA 1: CAATCTGAATTCCGGTCTCCC
DNA 2: TGGTGGCTACGACGGGATT
B8: AAUUCAA (DNA:RNA)
RNA: B3 RNA with C25A, U26A, A27U, U29C, U30A
DNA 1: CAATCTGAATTCCGGTCTCCC
DNA 2: TGGTGGCTACGACGGGATT
B9: UAGGCUG (DNA:RNA)
RNA: B3 RNA with C25U, U26A, A27G, U28G, U29C, A31G
DNA 1: CAATCTGAATTCCGGTCTCCC
DNA 2: TGGTGGCTACGACGGGATT
B10: UCCCCCU (DNA:RNA)
RNA: B1 RNA with G25U, G28C, G29C
DNA 1: CAATCTGAATTCCGGTCTCCC
DNA 2: TGGTGGCTACGACGGGATT
B11: AUUAAGG (DNA:RNA)
RNA: B3 RNA with C25A, A27U, U28A, U29A, U30G, A31G
DNA 1: CAATCTGAATTCCGGTCTCCC
DNA 2: TGGTGGCTACGACGGGATT
B12: CGGGAAU (DNA:RNA)
RNA: B1 RNA with G25C, C26G, C27G, G29A, C30A
DNA 1: CAATCTGAATTCCGGTCTCCC
DNA 2: TGGTGGCTACGACGGGATT
B13: GUCACUA (DNA:RNA)
RNA: B3 RNA with C25G, A27C, U28A, U29C
DNA 1: CAATCTGAATTCCGGTCTCCC
DNA 2: TGGTGGCTACGACGGGATT
B14: UGGUCGC (DNA:RNA)
RNA: B3 RNA with C25U, U26G, A27G, U29C, U30G, A31C
DNA 1: CAATCTGAATTCCGGTCTCCC
DNA 2: TGGTGGCTACGACGGGATT
B15: ACGGAGU (DNA:RNA)
RNA: B1 RNA with G25A, C27G, G29A, C30G
DNA 1: CAATCTGAATTCCGGTCTCCC
DNA 2: TGGTGGCTACGACGGGATT
B16: UAACAGU (DNA:RNA)
RNA: B3 RNA with C25U, U26A, U28C, U29A, U30G, A31U
DNA 1: CAATCTGAATTCCGGTCTCCC
DNA 2: TGGTGGCTACGACGGGATT
B17: GCCGAUU (DNA:RNA)
RNA: B1 RNA with G29A, C30U
DNA 1: CAATCTGAATTCCGGTCTCCC
DNA 2: TGGTGGCTACGACGGGATT
B18: GUCCGAG (DNA:RNA)
RNA: B1 RNA with C26U, G28C, C30A, U31G
DNA 1: CAATCTGAATTCCGGTCTCCC
DNA 2: TGGTGGCTACGACGGGATT
B19: GAUUCAA (DNA:RNA)
RNA: B3 RNA with C25G, U26A, A27U, U29C, U30A
DNA 1: CAATCTGAATTCCGGTCTCCC
DNA 2: TGGTGGCTACGACGGGATT
B20: GGGGGAU (DNA:RNA)
RNA: B1 RNA with C26G, C27G, C30A
DNA 1: CAATCTGAATTCCGGTCTCCC
DNA 2: TGGTGGCTACGACGGGATT

Each binder was assayed against T1, RBFOX1 RRM (assay: EMSA; HiTS-Eq, 1 nM pool, 10 min; buffer printed only for the single-RNA assays: 10 mM Tris pH 7.5, 150 mM NaCl, 3.4 mM EDTA, 0.001% NP-40, 30 C). Settings: tags: His6 N-terminal (pET28a); label: 5' 32P.
Method in brief: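 These values rest on relative association constants, computed from read-count changes of each RNA species versus the control reaction and normalised to the cognate motif. Reads came from free RNA recovered by 8% native PAGE after purified RbFox RRM (wild type or mutant) at increasing concentrations was equilibrated for 10 min in 50 µL with 1 nM of a 5′-radiolabelled pool with 7 randomized nucleotides and DNA-annealed flanks.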

Binder	binding signal
B1	0.0209 KA relative to UGCAUGU
B2	0.0146 KA relative to UGCAUGU
B3	0.00555 KA relative to UGCAUGU
B4	0.0291 KA relative to UGCAUGU
B5	0.00746 KA relative to UGCAUGU
B6	0.0031 KA relative to UGCAUGU
B7	0.696 KA relative to UGCAUGU
B8	0.00106 KA relative to UGCAUGU
B9	0.0229 KA relative to UGCAUGU
B10	0.00784 KA relative to UGCAUGU
B11	0.00849 KA relative to UGCAUGU
B12	0.0246 KA relative to UGCAUGU
B13	0.00277 KA relative to UGCAUGU
B14	0.016 KA relative to UGCAUGU
B15	0.00654 KA relative to UGCAUGU
B16	0.00639 KA relative to UGCAUGU
B17	0.0145 KA relative to UGCAUGU
B18	0.0163 KA relative to UGCAUGU
B19	0.0073 KA relative to UGCAUGU
B20	0.0252 KA relative to UGCAUGU
